# From PubChem BioAssay AID1345083 (National Center for Advancing Translational Sciences (NCATS), 2018)
# Among all 94,000 compounds or so, about 6,200 (6.6%) were called active. The shares of active, inactive and inconclusive entries below differ from those in the screen. Calls come from the whole dose curve; as a rule, active = well fitted inhibition curve with a large enough effect; inconclusive = small, poorly fitted or top-dose-only effect; inactive = flat fitted curve, though single readings scatter. Potencies beside an inconclusive call are fits to weak or partial responses and may not hold up.
# Experiment: Cytotoxic Profiling in HEK 293 Cell Line of Diverse Libraries Using Quantitative High-Throughput Screening; note: nearly all actives have a fitted effect of over 60% in size
# Conditions: HEK 293 viability, ATP luminescence (CellTiter-Glo), 48-72 h; series mostly up to 115 µM
# Outline: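 HEK 293 seeded at 250 cells/well receive compound via pintool. After 48 or 72 hr at 37 degree Celsius, 5% CO2 and 95% humidity, CellTiter-Glo is dispensed and luminescence read following 10 min at room temperature.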
# Potency is the fitted concentration of half-maximal effect; tags give direction and shape of the fitted curve.
row,SMILES,Potency
1,CCCCn1c(=O)c(C(=O)N2CCN(Cc3ccccc3)CC2)nc2cccnc21,"inconclusive: 89.1 µM [inhibitor, partial curve, poor fit]"
2,COc1cccc(Nc2cc3c(cn2)CN(Cc2cccnc2)CCN3)c1,"inconclusive: 63.1 µM [inhibitor, full curve, poor fit]"
3,CCOc1ccc2c(n1)CCN(C(=O)c1ccc(C(C)C)cc1)C2,"inconclusive: 89.1 µM [inhibitor, single point]"
4,Cc1ccc(C)c(CN2CCc3nc(N4CCN(C)CC4)[nH]c(=O)c3CC2)c1,inactive
5,Cc1cnc(C(=O)N2CCCCCCNC(=O)[C@@H]3CCC[C@@H]32)cn1,inactive
6,O=C(C1CC1)N1CCC(c2nnc3n2C(C(=O)N2CCN(c4ncccn4)CC2)CC3)CC1 (stereo not drawn),inactive
7,OC1(c2csc(CN3CCc4ccccc4C3)n2)CCN(C2CCC2)CC1,active: 70.8 µM
8,O=C(CCc1cc(Cl)no1)N1CCCC(Cc2nncn2Cc2ccccc2)C1 (stereo not drawn),inactive
9,Cc1nnc(C2CCCCCN2S(=O)(=O)c2cccnc2)o1 (stereo not drawn),inactive
10,O=S(=O)(c1cccnc1)N1CCCCC1CCc1cccs1 (stereo not drawn),"inconclusive: 28.2 µM [inhibitor, partial curve, poor fit]"
11,Cc1nc(-c2ccccc2)n(CC(=O)Nc2ccccc2)c(=O)c1CCO,"inconclusive: 50.1 µM [inhibitor, partial curve, poor fit]"
12,COCCN1CCCCCC(O)c2cc(C(=O)NCCc3nc4ccccc4n3C)ccc21 (stereo not drawn),"inconclusive: 79.4 µM [inhibitor, partial curve, poor fit]"
13,Cc1ccc(CC(=O)N2CCC(Cc3nc(-c4ccccc4)no3)CC2)cc1,"inconclusive: 56.2 µM [inhibitor, partial curve, poor fit]"
14,O=C1CO[C@H]2CCN(Cc3cccc(OC(F)(F)F)c3)CC[C@@H]2N1CCN1CCCC1,"inconclusive: 79.4 µM [inhibitor, partial curve, poor fit]"
15,COc1cccc(-c2ccc(C(=O)N3CCC4(CCCN(C)C4=O)C3)o2)c1 (stereo not drawn),"inconclusive: 89.1 µM [inhibitor, single point]"
16,COc1cccc(-c2cccc(C(=O)N3CCN(C(=O)C4CC4)CC3)c2)c1,"inconclusive: 89.1 µM [inhibitor, single point]"
17,C=CCc1cc(-c2c(-c3ccccc3)ncn2CCOCCO)cc(OC)c1O,"inconclusive: 50.1 µM [inhibitor, partial curve, poor fit]"
18,C[S+](=O)([O-])c1ccc(CC(=O)N2CC(COc3ccccc3)C3(C2)CN(c2ccccc2)C3)cc1 (stereo not drawn),"inconclusive: 35.5 µM [inhibitor, full curve, poor fit]"
